The values below come from PubChem BioAssay AID504467 (National Center for Advancing Translational Sciences (NCATS), 2011).

Each structure is given as a SMILES string. The campaign covered roughly 330,000 compounds. About 7,700 (2.3%) were called active. Another 26% or so got no clear call; they are omitted. Calls follow the shape of the dose curve; as a rule, active = well fitted inhibition curve with a large enough effect; inconclusive = small, poorly fitted or top-dose-only effect, or effect the other way; inactive = flat fitted curve, though single readings scatter. Only a part is listed here, and it is no random draw.
% is scaled to controls: 0 for no effect and ±100 for the full control effect; potency is read from the fitted curve at half-maximal effect.

This experiment can be described thus: qHTS screen for small molecules that inhibit ELG1-dependent DNA repair in human embryonic kidney (HEK293T) cells expressing luciferase-tagged ELG1. Also: nearly all actives have a fitted effect of over 55% in size. To be noted: HEK293T ELG1-luciferase reporter, luminescence, 16 h, DNA damage induced by 5-fluorouridine; series mostly up to 46.1 µM; activity change, negative = inhibition: at the top concentration. A digest of the protocol: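 Cells (2,000 per well) received 5-fluorouridine plus test compound or DMSO and were incubated 16 hr at 37 °C, 5% CO2. Luciferase activity was read by luminescence 30 min after ONE-Glo addition; signal suppression marked inhibition of damage-induced ELG1 function.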
A general note: Quantitative high-throughput screening tests each substance at several concentrations.
For `Cc1ccc2c(c1)C(c1ccccc1)N(C(=O)c1ccccc1[N+](=O)[O-])CC(=O)N2` (stereo not drawn), the Potency is active: 20.6 µM.

As for `O=S(=O)(c1cccc2nsnc12)N1CCN(C/C=C\c2ccccc2)CC1`, the “activity change, negative = inhibition” value is inactive: -12.9%.

In the case of `O=C(Nc1cccc2ccccc12)/C(=C\c1cccc([N+](=O)[O-])c1)NC(=O)c1cccs1`, the “activity change, negative = inhibition” value is inactive: -30%.

For `CC(C)(C)OC(=O)C[C@@H]1C/C=C\C[C@@H](CC(=O)N[C@H](CO)Cc2ccccc2)C(=O)NCCOC1=O`, the “activity change, negative = inhibition” value is inactive: 0.537%.

For the compound `OCC[C@H]1C[C@H](O)[C@@H](O)[C@]2(Cc3ccccc3CO2)O1`, the “activity change, negative = inhibition” value was inactive: 6.4%.

Consider `CCSc1ccc([C@@H]2[C@@H]3C(=O)N(C)C(=O)[C@@H]3[C@]3(C(=O)OC)CCCCN23)cc1OC`, for which the “activity change, negative = inhibition” value is inactive: -11.5%.

For the compound `C/C(Cl)=C\CSc1nnc2n(N)c(=O)c3ccccc3n12`, the “activity change, negative = inhibition” value is inactive: -1.31%.

On to `O=C(C1=C[C@H](c2coc3ccccc3c2=O)C[C@H](OCc2ccc(CO)cc2)O1)N1CCN(Cc2ccc3c(c2)OCO3)CC1`, for which the Potency is active: 13 µM.

Consider `O=C(Cc1ccc(F)cc1)N[C@@H]1c2ccccc2CC[C@H]1OCc1ccccc1`, for which the “activity change, negative = inhibition” value was inactive: 11.1%.

`CC(C)[C@H](NC(=O)N1CC(=O)Nc2ccccc21)C(=O)N1CCC[C@@H]1C(=O)O`: the “activity change, negative = inhibition” value is inactive: 10.5%.

Turning to `CCCn1c(SCC(=O)Nc2sc(C)c(C)c2C#N)nnc1C(C)C`, the Potency was active: 20.6 µM.

For `CCO[C@H]1OC(C(=O)NCc2ccccc2)=C[C@@H](c2ccc(C(F)(F)F)cc2)[C@@H]1CCCO`, the “activity change, negative = inhibition” value is inactive: -10.5%.

On to `COc1ccc2[nH]c3c(c2c1)CCN1C(=O)C(CC(=O)NCC24CC5CC(CC(C5)C2)C4)C[C@H](C(=O)N2CCCCC2)[C@@]31C` (stereo partly drawn), for which the Potency is active: 13 µM.

Take `CC(=O)C[C@H](O)CC(=O)[C@@H]1OC(=O)CCCCC/C=C/Cc2ccccc21`: the “activity change, negative = inhibition” value was inactive: 14.8%.

For `C=CC[C@H](CC(=O)N[C@H](CO)Cc1ccccc1)C(=O)N[C@H](COC(=O)[C@@H](CC=C)CC(=O)OC(C)(C)C)Cc1c[nH]c2ccccc12`, the “activity change, negative = inhibition” value is inactive: -7.35%.

Regarding `COc1ccc(OC)c(NC(=O)CN(c2ccc(C(C)C)cc2)S(=O)(=O)c2c(C)noc2C)c1`, the Potency is active: 8.2 µM.

Consider `C[C@H](NC(=O)c1[nH]cnc1C(=O)Nc1nccs1)c1ccccc1`, for which the “activity change, negative = inhibition” value was inactive: 15.9%.

As for `C[C@@H]1OC(Nc2ccc(N=Nc3ccccc3)cc2)[C@H](O)[C@H](O)[C@H]1O` (stereo partly drawn), the “activity change, negative = inhibition” value was inactive: 0%.

In the case of `COc1ccc(S(=O)(=O)N(C)C[C@H]2Oc3c(NS(=O)(=O)c4cn(C)cn4)cccc3C(=O)N([C@H](C)CO)C[C@@H]2C)cc1`, the “activity change, negative = inhibition” value is inactive: 16.9%.

Consider `O=C(c1cc(=O)[nH]c2ccccc12)N1CCN(S(=O)(=O)c2ccc(Cl)cc2)CC1`, for which the Potency is active: 23.1 µM.

For the compound `COC(=O)Cc1csc(N)n1`, the “activity change, negative = inhibition” value was inactive: 10.3%.

As to `O=C(NCCO)/C(=C\c1ccc2c(c1)OCO2)NC(=O)c1ccc(Br)cc1`, the “activity change, negative = inhibition” value is inactive: 0.678%.

For `CCC12CCCN3CCc4c(n(c5ccccc45)C(O)(C(=O)OC)C1)C32` (stereo not drawn), the “activity change, negative = inhibition” value is inactive: 3.73%.

Consider `CC(C)NC(=O)N(C)C[C@H]1Oc2ccc(NC(=O)Nc3ccccc3)cc2C(=O)N([C@@H](C)CO)C[C@@H]1C`, for which the “activity change, negative = inhibition” value was inactive: 11.7%.

As to `COc1cc(C(=O)O[C@H]2C/C(C)=C/CC[C@]3(C)O[C@@H]3C(O)C2C(C)C)cc(OC)c1OC` (stereo partly drawn), the “activity change, negative = inhibition” value was inactive: -17.3%.

In the case of `OCC[C@H]1C[C@H](O)[C@@H](O)[C@]2(CCc3ccccc3CO2)O1`, the “activity change, negative = inhibition” value was inactive: 3.22%.

Regarding `O=C(O)CSc1nc2c(c(C(F)(F)F)n1)CCCC2`, the “activity change, negative = inhibition” value was inactive: -0.906%.

In the case of `COC(=O)[C@@H]1C[C@@]2(O)[C@@H](O)[C@@H](O)[C@@H](O)C[C@H]2N1C/C=C/c1ccccc1`, the “activity change, negative = inhibition” value is inactive: 9.65%.

With `O=[N+]([O-])c1ccc(C(O)C(CO)NC(=S)Nc2ccccc2)cc1` (stereo not drawn), the Potency is active: 8.2 µM.

Regarding `O=C(COc1ccccc1)N[C@@H]1c2ccccc2CC[C@@H]1OCc1ccccc1`, the “activity change, negative = inhibition” value was inactive: -4.54%.

On to `COc1cc(C(=O)NCc2ccncc2)cc(Br)c1OCc1ccccc1`, for which the Potency is active: 14.6 µM.

Take `CC(C)(C)OC(=O)C[C@@H]1C/C=C\C[C@@H](CC(=O)NCCO)C(=O)N2CCC[C@H]2COC1=O`: the “activity change, negative = inhibition” value was inactive: 10.9%.

On to `CCO[C@@H]1OC(C(=O)N2CCN(Cc3ccccc3)CC2)=C[C@H](c2cn(C(C)=O)c3ccccc23)[C@H]1CCCO`, for which the “activity change, negative = inhibition” value is inactive: -22.3%.

`COC(=O)[C@@H]1C[C@@]2(O)[C@@H](O)[C@@H](O)[C@@H](O)C[C@H]2N1Cc1ccc(C)s1`: the “activity change, negative = inhibition” value was inactive: 29.5%.

On to `Cc1ccc(-c2nc(NC(=O)c3nn(C)cc3[N+](=O)[O-])sc2C)cc1`, for which the Potency was active: 16.4 µM.

`COc1ccccc1NC(=O)[C@@H]1CCCN1S(=O)(=O)c1ccc(Cl)cc1`: the “activity change, negative = inhibition” value was inactive: -17.8%.

Turning to `O=C(C1=C[C@H](C2CC2)C[C@H](OCCCCO)O1)N1CCOCC1`, the “activity change, negative = inhibition” value was inactive: 20.5%.

In the case of `CC(C)(C)OC(=O)NCc1ccc(CNC(=O)c2nc[nH]c2C(=O)N2CCN(C(=O)OC(C)(C)C)CC2)cc1`, the Potency is active: 11.6 µM.
